Experimental findings from the RNAGym collection of RNA variant scans (doi:10.1093/nar/gkz1192) are described below.

B1: CPEB3 Ribozyme (parent)
chain: UAACAGGGGGCCACAGCAGAAGCGUUCACGUCGCAGCCCCUGUCAGAUUCUGGUGAAUCUGCGAAUUCUGCUGUAUAUCUC

Read counts are not given, so values of variants with three or more changes are uncertain.

In this data set the parent is B1. The data set can be described thus: self-cleavage, relative activity (ratio to wild type); higher = more cleavage; in vitro, sequencing. The procedure, abridged: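 Libraries of CPEB3 self-cleaving ribozyme mutants came from rounds of error-prone PCR and carried barcodes, which DNA sequencing matched to variants. In vitro transcription used T7 RNA polymerase at 37°C for 5 hours, with a further 15 min in DNase I before EDTA stopped the reaction; the ribozymes cleaved during both steps. The RNA was reverse transcribed with template switching and sequenced on Illumina. Relative activity is the cleaved/total read fraction of a variant divided by that of the unmutated ribozyme, averaged over three batches with at least 5 reads.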
On to A5G C12A U26A U49A, for which the self-cleavage came to 0.44.
In the case of A5G G9A U51A U72A it was 0.1; in that of A5G A15G A18C A28G A75G, 0; in that of A5C C37G A45G U49C U54C, 0.29.
Consider A5G A13U U25A G36A A64U, for which the self-cleavage was 0.24.
In the case of A5G U25C C32A C37A U48C U69C it was 0.07; in that of A5G A15G U51C, 0.63; in that of A5G A15C A18G A21G U26C U51A U78G, 0.63.
A5G A20G A21G U60C: the self-cleavage amounted to 0.16.
In the case of A5G A28G A56G A65G U66C C68A U78C, the self-cleavage is 0.05.
As to A5G G7U G9C U25C U41C, the self-cleavage came to 0.45.
Turning to A5G A15G A20U A47U, the self-cleavage came to 0.41.
Next, A5G C17A U25G A57U: 0.31; A5G G6A U43C: 0.4.
On to A5G A13G A64G, for which the self-cleavage was 0.38.
In the case of A5G U25A C34A A45G A75G, the self-cleavage was found to be 0.19.
Next, A5G C12U A28G A45U: 0.37; A5G G9A A35G A56U U58C A65G: 0.1; A5G A13G U69C: 0.07.
With A5G A20U A21G G46U A56G U67C U69G, the self-cleavage is 0.17.
With A5G G10A U74A C79U, the self-cleavage was determined as 0.81.
Consider A5G A15G C37U U41A G53U, for which the self-cleavage was 0.52.
As to A5G C39A U43C U48G A57C, the self-cleavage was found to be 0.37.
Take A5C U41A U43C U60C A75U: the self-cleavage was found to be 0.08.
Next, A5G A13U A20U G53A: 0.37; A5G C34G C79U U80G: 0.13; A5G G9U A13G A21G C40A A47G U60C: 0.09.
Regarding A5G A21C G55A U72C, the self-cleavage stood at 0.38.
In the case of A5G A18G A47G it was 0.66; in that of A5G C12U A47G, 0.86; in that of A5G U25C U41A U51A A64G U80C, 0.08.
Consider A5G C12A U41A A64G U67C A75U U78C, for which the self-cleavage was 0.1.
Turning to A5G A28U U43C, the self-cleavage was 0.49.
As to A5G C23G C44U A47G, the self-cleavage stood at 0.53.
In the case of A5G A18G A21C U48C it was 0.53; in that of A5G A64G U72A, 0.24; in that of A5G A13U U49C, 0.33.
For A5G G9A A13G A28U U66C U69C C71U, the self-cleavage was 0.03.
A5G A18U U51C: the self-cleavage worked out at 0.25.
A5C A28G U69C A75G: the self-cleavage is 0.23.
Turning to A5G A13C A28G, the self-cleavage came to 0.44.
With A5G A18U U26C U74C, the self-cleavage turned out to be 0.56.
In the case of A5G A20G A45C A56G U72C U74C U76A, the self-cleavage is 0.11.
With A5G A13G U48C U60A A64U, the self-cleavage came to 0.08.
Next, A5G U25C U26C G36C U51A C68A: 0.03; A5G A18U G42C A57U: 0.17.
Regarding A5G U25C U26C C38A, the self-cleavage came to 0.09.
Regarding A5G G10C A13G A20G A47U U48C A65U, the self-cleavage stood at 0.1.
As to A5G A28G U49C, the self-cleavage was 0.22.
As for A5G A15U A18G, the self-cleavage is 0.23.
In the case of A5G G10A U78C, the self-cleavage was found to be 0.15.
In the case of A5G A13U C23A C38G U41G U51C A77G it was 0.11.
As for A5C U41A U67A, the self-cleavage stood at 0.12.
In the case of A5G G9C A21G A47U G53U U58C, the self-cleavage came out at 0.22.
Turning to A5G C17G U26C A28G A77G U78C, the self-cleavage was 0.12.
Take A5G G6A C11U U31A A56G A64U U72G: the self-cleavage stood at 0.05.
With A5G A45U U66C, the self-cleavage is 0.2.
Next, A5G A18G A64G: 0.19; A5G C14A A18G U54G U60C: 0.1; A5G A15G U49C U60C: 0.2.
For the variant A5G U25C U41C A75U, the self-cleavage came to 0.36.
For A5G A18G U58C U69C U72A U80C, the self-cleavage was found to be 0.25.
Next, A5G A65G U80C: 0.1.
Next, A5C A35G C59A U69G U78C: 0.74; A5G C12A A35U U43C U51C U80A: 0.46; A5G A20U U72A: 0.46.
For the variant A5G A47G U54A A57G A77G, the self-cleavage amounted to 0.33.
With A5G A13G U51A U72A, the self-cleavage came to 0.33.
Take A5G C11G U60A A64U: the self-cleavage turned out to be 0.08.
As to A5G U25C A45G U51A U60C A64G U80A, the self-cleavage amounted to 0.17.
In the case of A5C A15G U60C U78A it was 0.33.
Take A5G A20G U26C A64G U74C: the self-cleavage was 0.09.
Turning to A5G A13G G33C, the self-cleavage was 0.5.
In the case of A5G A28U A35G U43A U49C it was 0.3; in that of A5C A21U U69C, 0.44; in that of A5C A20G G36U A45G, 0.13.
On to A5G A15U A20G U78C, for which the self-cleavage stood at 0.5.
On to A5G A21U C32A A35U U51A C68A C81U, for which the self-cleavage turned out to be 0.02.
Consider A5G A15G A18G A28U A57G, for which the self-cleavage was found to be 0.43.
In the case of A5G C14U U54C, the self-cleavage was 0.76.
Turning to A5G A35U C44U U66C, the self-cleavage turned out to be 0.21.
On to A5G A28C A35C G46U, for which the self-cleavage was found to be 0.31.
As to A5C U25C U67C, the self-cleavage was found to be 0.15.
